The whole screen tested about 310,000 compounds, of which about 14,000 (4.5%) showed an effect of 50% or more. Effects have a minus sign here. The list shows a part of the results.
Biological target: human ether-à-go-go-related gene (hERG) potassium channel (human, UniProt Q12809)
Experiment: primary screen, population patch clamp on CHO cells stably expressing hERG
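Further: peak tail current of the secondary pulse compared with the same well before compound.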

human ether-à-go-go-related gene (hERG) potassium channel, sequence (Q12809 whole entry, looked up): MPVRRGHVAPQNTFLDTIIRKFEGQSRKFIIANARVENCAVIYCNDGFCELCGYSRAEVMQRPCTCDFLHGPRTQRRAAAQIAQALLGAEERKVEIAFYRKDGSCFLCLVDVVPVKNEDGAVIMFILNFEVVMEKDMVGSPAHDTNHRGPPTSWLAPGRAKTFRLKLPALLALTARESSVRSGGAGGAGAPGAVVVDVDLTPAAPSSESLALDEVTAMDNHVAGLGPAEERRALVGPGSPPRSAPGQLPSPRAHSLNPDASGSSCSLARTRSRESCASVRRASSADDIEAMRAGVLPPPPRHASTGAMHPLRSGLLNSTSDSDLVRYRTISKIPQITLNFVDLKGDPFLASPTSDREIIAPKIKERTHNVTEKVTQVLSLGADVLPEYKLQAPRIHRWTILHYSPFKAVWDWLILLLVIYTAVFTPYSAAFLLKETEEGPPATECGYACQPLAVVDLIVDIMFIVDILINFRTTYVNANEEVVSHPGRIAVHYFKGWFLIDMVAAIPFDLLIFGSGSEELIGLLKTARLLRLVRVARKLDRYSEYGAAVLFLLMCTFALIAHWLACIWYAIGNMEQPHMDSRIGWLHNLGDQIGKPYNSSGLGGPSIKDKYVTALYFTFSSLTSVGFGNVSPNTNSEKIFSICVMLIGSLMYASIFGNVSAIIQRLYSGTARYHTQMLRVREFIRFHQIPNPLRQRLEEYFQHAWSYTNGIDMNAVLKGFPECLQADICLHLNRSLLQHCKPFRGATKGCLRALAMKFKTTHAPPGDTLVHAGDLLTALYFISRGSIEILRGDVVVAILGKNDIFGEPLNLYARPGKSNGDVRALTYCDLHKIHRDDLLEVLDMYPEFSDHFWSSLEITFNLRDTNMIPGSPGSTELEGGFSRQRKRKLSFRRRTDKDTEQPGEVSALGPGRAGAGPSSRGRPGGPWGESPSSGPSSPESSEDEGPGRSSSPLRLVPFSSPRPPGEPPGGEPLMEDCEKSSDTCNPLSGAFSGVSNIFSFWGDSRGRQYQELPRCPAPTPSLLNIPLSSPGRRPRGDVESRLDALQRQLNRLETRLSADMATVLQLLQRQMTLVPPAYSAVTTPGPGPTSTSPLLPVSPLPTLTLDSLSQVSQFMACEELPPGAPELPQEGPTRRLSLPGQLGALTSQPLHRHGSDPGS

| Compound | hERG current change (%, negative = inhibition) at 10uM [%] |
| --- | --- |
| CN(CC(=O)Nc1c(Cl)cccc1Cl)C(=O)CCc1nc2sc3c(c2c(=O)[nH]1)CCCC3 | 13.2 |
| CC(C)OC(=O)CSc1nnc(-c2ccc([N+](=O)[O-])cc2)o1 | 4.46 |
| CCOc1ccc(N(C)S(=O)(=O)c2c[nH]c(C(=O)OC)c2)cc1 | -5.78 |
| CC(C)CCCNc1nc(N2CCOCC2)nc(N2CCOCC2)n1 | -14 |
| Cc1ccc(CNC(=O)CSc2nc3ccsc3c(=O)n2Cc2ccccn2)cc1 | -22.5 |
| CCOC(=O)c1cc(C)nc(N2CCCCC2)c1C#N | -3.13 |
| Cc1ccc(C(=O)COC(=O)CNS(=O)(=O)c2ccccc2)cc1[N+](=O)[O-] | -3.62 |
| COc1ccc([C@H]2[C@@H](C#N)[C@H](C#N)N3CCCN23)cc1 | 14.2 |
| COc1cc(NS(=O)(=O)c2ccc(-c3ccc(=O)[nH]n3)o2)cc(OC)c1OC | -5.99 |
| Cc1ccc(NC(=O)C2CCCN(c3ncccn3)C2)cc1F (centres unmarked) | -0.00042 |
| O=S(=O)(c1cccs1)N1CCN(S(=O)(=O)c2cccs2)CC1 | 20.8 |
| CC(C)c1nnc(NC(=O)CCC(=O)NCCc2ccccc2)s1 | 7.63 |
| CCCN(CC(=O)Nc1ccccc1C)C(=O)CCl | -0.969 |
| CCOc1ccccc1OCCCC(=O)NCCc1ccc(S(N)(=O)=O)cc1 | 5.08 |
| Cc1cccc(NC(=O)c2ccccc2OCC(=O)N2CCCC2)c1C | -2.46 |
| CCCOC(=O)c1ccc(NC(=O)C(CC)CC)cc1 | -4.06 |
| O=C(Nc1ccccc1C(F)(F)F)C1CC(=O)N(c2ccccc2F)C1 (centres unmarked) | -16.3 |
| COCCn1c(SCC(=O)N(C)c2c(N)n(Cc3ccccc3)c(=O)[nH]c2=O)nnc1-c1cccc(C)c1 | 24.7 |
| C[C@H](NC(=O)c1ccccc1Cl)C(=O)Nc1ccccc1F | -6.39 |
| CCCCSCCCNC(=O)c1ccc(CS(=O)(=O)c2ccc(OC)cc2)o1 | -59.6 |
| CC1(C)Cc2c(cnn2-c2cccc(F)c2)C(NC(=O)CCc2cnccn2)C1 (centres unmarked) | -28.4 |
| CCOc1ccc(/C=N/NC(=O)c2cc(-c3ccco3)nc3ccccc23)cc1 | 3.56 |
| CN1CCSc2ccc(C(=O)NCc3cccc(Br)c3)cc21 | 0.343 |

| Compound | hERG current change (%, negative = inhibition) at 10uM [%] |
| --- | --- |
| CC(C)c1ccccc1 | 15.3 |
| COc1ccc(OC)c(-c2csc(NC(=O)c3ccc(F)cc3)n2)c1 | -46.8 |
| CCOC(=O)N1CCC(N2CCCC(C(=O)c3ccccc3OC)C2)CC1 (centres unmarked) | -67.7 |
| c1ccc2sc(NC3=NCCN3)nc2c1 | -26.2 |
| CCCCCn1c(SCC#N)nc2cc(C(=O)NCC3CCCO3)ccc2c1=O (centres unmarked) | -52.7 |
| CCCn1nc(C(=O)OCC(=O)c2ccc3c(c2)NC(=O)CO3)c2ccccc2c1=O | -23 |
| Cn1nnnc1SCC1=C(C(=O)O)N2C(=O)C(NC(=O)C3CC3c3ccccc3)C2SC1 (centres unmarked) | 41 |
| O=S(=O)(N/N=C\c1ccc(-c2ccccc2Cl)o1)c1ccccc1 | 10.4 |
| O=S1(=O)CCN(C(CO)c2ccccc2)CC1 (centres unmarked) | 18.2 |
| CCOC(=O)C1=C(c2ccccc2)OC(N)=C(C#N)C1c1ccc(Br)s1 (centres unmarked) | 14.1 |
| CCOC(=O)c1ccc(-n2nc(C)cc2C)cc1 | 5.63 |
| O=C(O)Cc1c[nH]c2ccc(O)cc12 | 15.8 |
| COCCCNC(=O)CCn1c(=O)c2ccccc2n(CC(=O)Nc2c(C)cccc2C)c1=O | 16.9 |
| COc1ccc(OCCC(=O)OCC(=O)NCc2ccc(F)cc2)cc1 | 3.53 |
| COc1ccc(N2CCN(Cc3cc(=O)c(OCC(=O)NC4CCCC4)co3)CC2)cc1 | -23.1 |
| CCN(CC)c1ccc(/C=N/NC(=O)c2c(Cl)cnn2C)c(O)c1 | 3.26 |
| O=C(CC1NCCc2ccccc21)Nc1ccccc1Cl (centres unmarked) | 16.6 |
| Cc1ccc(-c2nnc(-c3ccc(NC(=O)c4ccco4)cc3)o2)cc1 | 10.5 |
| CC1CCN(S(=O)(=O)c2ccc(NC(=O)N3c4ccccc4Sc4ccccc43)cc2)CC1 | 14.6 |
| CCOc1cc(/C=N/Nc2nc(-c3cccc(S(=O)(=O)N4CCCC4)c3)cs2)ccc1O | 3.28 |
| O=c1c(Cc2ccc(F)cc2)c(O)ccn1CCCN1CCOCC1 | 17.3 |
| O=C(c1ccccc1)c1cccc[n+]1[O-] | 19.7 |
| Cc1ccccc1OCc1nc(-c2ccc(NC(=O)c3ccco3)cc2)no1 | 5.41 |

| Compound | hERG current change (%, negative = inhibition) at 10uM [%] |
| --- | --- |
| O=C(OCC(=O)N1CCCc2ccccc21)c1cncc(Br)c1 | -5.52 |
| COc1ccccc1CN(C)CC(=O)Nc1ccc(Cl)cc1F | -5.73 |
| Cc1nn2c(N3CCCC3)c3c(nc2c1-c1ccccc1)CCC3 | 7.19 |
| CC1CCN(C(=O)Nc2ccc3nsnc3c2)CC1 | -8.2 |
| O=C(O)CCc1ccc(-c2cccs2)o1 | 6.62 |
| CCCn1nnc(NC(=O)COc2ccc(Cl)cc2)n1 | -6.92 |
| O=C(Nc1cccc(C(=O)N2CCN(c3ccccc3)CC2)c1)c1ccco1 | -15.8 |
| COc1ccc(NC(=O)/C=C/c2ccc(C)o2)cc1S(=O)(=O)N1CCOCC1 | -14.2 |
| CC1CCN(C2CC(=O)N(c3ccc(Br)cc3Br)C2=O)CC1 (centres unmarked) | 2.17 |
| CN(C)S(=O)(=O)n1cc(/C=C(\NC(=O)c2ccccc2Cl)C(=O)NCCN2CCOCC2)c2ccccc21 | 11.3 |
| CC(c1ccc(F)cc1)n1cc(C(=O)NCc2ccc3c(c2)OCO3)nn1 (centres unmarked) | -3.81 |
| COc1ccc(NC(=O)CCCSc2ccccc2)cc1 | 14.7 |
| CCOc1ccc(NC(=S)NNc2ccnc3cc(Cl)ccc23)cc1 | -17.3 |
| CCOc1ccccc1NC1=NCC(=O)N1Cc1ccc(F)cc1 | -5.41 |
| Cc1ccsc1C(=O)OCC(=O)Nc1nnc(-c2ccccc2)o1 | 13.9 |
| COc1ccc(NCC(=O)N/N=C/C=C/c2ccccc2[N+](=O)[O-])cc1 | 5.54 |
| COc1cc(Br)c(/C=C/c2ccc3cccc(O)c3n2)cc1OC | 15.3 |
| CCOc1cc(N2CCOCC2)c(OCC)cc1NC(=O)c1ccc(C)s1 | 15.4 |
| CCOc1ccccc1N1CCN(C(=O)c2cc(-c3cc(OC)ccc3OC)nc3ccccc23)CC1 | -12.1 |
| Cc1nn(Cc2noc(C(=O)NCc3ccc(F)cc3)n2)c(C)c1Br | 6.28 |
| COc1ccc(CC2C(=O)OC(C)(C)OC2=O)c(Cl)c1OC | 11.3 |
| CCOC(=O)N1CCN(C(=O)/C(=C/c2ccc(OC)c(OC)c2)NC(=O)c2ccccc2)CC1 | -34.5 |
| CCC(C(=O)NC1CCCCCC1)n1nc(C)n2c(cc3occc32)c1=O (centres unmarked) | -41.6 |

| Compound | hERG current change (%, negative = inhibition) at 10uM [%] |
| --- | --- |
| CCOC(=O)C(=Cc1ccc(-n2cncn2)cc1)C(=O)OCC | -1.42 |
| COc1ccc(Cl)cc1NC(=O)Cn1nnc(C(=O)NCc2ccc3c(c2)OCO3)c1N | 2.21 |
| Cc1ccc(C2=N/C(=C\c3c(C)nn(-c4ccccc4)c3N3CCCC3)C(=O)O2)cc1 | 5.11 |
| CCOc1cc(C(=O)Nc2ccc(S(=O)(=O)N3CCCCC3)cc2)ccc1OCC(=O)N1CCOCC1 | -14.4 |
| Cc1ccc(S(=O)(=O)N2CCOCC2)c2nsnc12 | -3.38 |
| Nc1ccc(-c2c3ccc(=O)cc-3oc3cc(O)ccc23)cc1C(=O)O | 15.4 |
| O=C1c2cc(Cl)ccc2OC2(CCNCC2)C12CC(c1ccc(Cl)cc1)=NO2 (centres unmarked) | 4.54 |
| COc1cc(CC(=O)OCC(=O)Nc2ccccc2C#N)cc(OC)c1OC | 5.92 |
| COc1ccc(C2CC(c3cccs3)=NN2C(=O)COC(=O)c2cc3ccccc3cc2O)cc1OC (centres unmarked) | 3.18 |
| CC(C(=O)N1CCCc2ccccc21)N1CCN(S(=O)(=O)c2ccccc2F)CC1 (centres unmarked) | -23 |
| Cc1cccc(-c2noc(CCC(=O)NC3CCCCC3)n2)c1 | 4.37 |
| CSc1nc2ccc(NS(=O)(=O)c3ccc(Br)s3)cc2s1 | 14.3 |
| COc1ccccc1CNC(=O)CSc1nnc2c(Cl)cc(C(F)(F)F)cn12 | 5.16 |
| Cc1ccc(CNC(=O)CCCc2c[nH]c3ccccc23)cc1 | -18.9 |
| OC1(c2cccs2)CN(c2ccc(Cl)cc2)C2=[N+]1CCCC2.[Br-] (centres unmarked) | -59.5 |
| CC1CCCN(C(=O)Cn2c(=O)oc3cc(S(=O)(=O)N4CCCCC4)ccc32)C1 (centres unmarked) | 8.08 |
| CCc1n[nH]c2c1/C(=N/O)CCC2 | 4.05 |
| S=C(NCCN1CCOCC1)N/N=C/c1cccs1 | 14.4 |
| CC(=O)c1ccc(NC(=O)CSc2nnc(NC(=O)c3ccco3)s2)cc1 | -26.9 |
| CN1C(C(=O)NCCc2cccs2)CC2Cn3c(nc4cc(Cl)c(Cl)cc43)C21 (centres unmarked) | -63.6 |
